In patent US12551573B2, “Compositions and methods for the targeting of PCSK9” (Scribe Therapeutics Inc., priority 2022, dated 2026):

B1: DOMAIN_19497 (protein, listed as Monodelphis domestica)
chain: CQETLTFKDVAVDFTREEWGQLGPAQRDLYKEVMLDNYRNLISLGLQGSKPDVIFWLERGQSPWTLKRRKSRDCCPEFHLH
B2: DOMAIN_19447 (protein, listed as Monodelphis domestica)
chain: PAQVLVTFKDVAVDFTQEEWRLLDPHQKELYKEVTLENAWNMLSMGLPVPRDLVSHFKQVEAPWMLEEEGSSNSCLDGERR
B3: DOMAIN_19487 (protein, listed as Monodelphis domestica)
chain: PQELVTFRDVAVDFTPEEWGQLGPAQKELYQEVMLENYRNLVCLGLTVSKPDVISQLEQGEAPWRLEGGSARGRCLDWGMR
B4: DOMAIN_19423 (protein, listed as Monodelphis domestica)
chain: PPRQERVTFGDVAVDFTLDEWVCLDSAQKALYRDVMLENYGHLVCLGLAGAKPAVIQRLERGEAAWCPGVPGSRLPGLFFF
B5: DOMAIN_19437 (protein, listed as Aotus trivirgatus)
chain: METLTFRDVAIEFSLEEWQCLDIAQQDLYRKVMLENYRNLAFLGIALTKPDLITCLEQRKVPWNMKRHEMADEPPVLCSNF
B6: DOMAIN_19445 (protein, listed as Monodelphis domestica)
chain: PQASVTFKDVAVDFTWEEWRLLDPSQKELFWEVMLENYRNLVCLGLADSNKDVRISELESGEPHWIPTGGVLRSCWPGWES
B7: DOMAIN_19596 (protein, listed as Monodelphis domestica)
chain: QLGSVAFEDVAVDFTQEEWGYLAPAQRDLHREVMLENYRNLVFLGLVASKPDVICHLEQRKEPWSLRGIEKRKALRGTCPD
B8: DOMAIN_19585 (protein, listed as Monodelphis domestica)
chain: AWEVVTFQDVAVDFTREEWRLLSPPQKELYKEVMLENVRNLLSVGLPAPPDDVVSYLEQREGPSMLDQEDLRTCGPEGEIR
B9: DOMAIN_19533 (protein, listed as Papio anubis)
chain: FQGSVTFRDVAIDFSQEEWKWLQPAQRDLYRCVMLENYGHLVSLGLSISKPDVVSLLEQGKEPWLGKRNVNRDLQALCIPI
B10: DOMAIN_19597 (protein, listed as Monodelphis domestica)
chain: AQVLVTFQDVAVDFTQEEWRLLDPGQKELYKEVMLENVQNVLSLGLPVPREDWFFHFHEGGDPWMLEGKGPSISRLDEERH
B11: DOMAIN_19580 (protein, listed as Monodelphis domestica)
chain: MELVTFEDVAVYFTRKEWGWLDPAQRDLYRDVMLENYGNFVSMGLPFSKPDVISQLEQGEESWVEDLQECEEGEFSPVVHS
B12: DOMAIN_19517 (protein, listed as Monodelphis domestica)
chain: PQELVTFEDVAVYLTKEEWEHLGPAQRRLYRDVMLENYENVVSLGFPVSKPDLISQLEQGEVPCLPDLPRTEVPEIHGGPL
B13: DOMAIN_214 (protein, listed as Pan paniscus)
chain: CSHRSCREDPGTSESREMDPVAFDDVAVNFTQEEWALLDISQRKLYREVMLETFRNLTSIGKKWKDQNIEYEYQNPRRNFR
B14: DOMAIN_145 (protein, listed as Pan paniscus)
chain: MVTFEDVAVHFTKTEWTGLSPAQRALYRSVMLENFGNLTALGYPVPKPALISLLEGGDMAWGLEAQDDPPAERTKNVCKVI

System: HBEGF locus
Format: cell-based, human
Conditions: high-throughput screen of dXR repression of the HBEGF gene; abundance of each domain in the library before and after diphtheria toxin selection; HEK293T cells

| Molecule | Log2 (fold change) |
| --- | --- |
| B1 | 3.466 |
| B2 | 3.4492 |
| B3 | 3.4312 |
| B4 | 3.49 |
| B5 | 2.826 |
| B6 | 2.1105 |

Same assay, conditions: high-throughput screen of dXR repression of the HBEGF gene; abundance of each domain in the library before vs after diphtheria toxin selection; listed domains met p-value <0.01 and log2(fold change) >2

| Molecule | Log2 (fold change) |
| --- | --- |
| B7 | 3.8583 |
| B8 | 3.0031 |
| B9 | 2.5831 |
| B10 | 3.5081 |
| B11 | 3.5716 |
| B12 | 3.3361 |

Same assay, conditions: high-throughput screen of dXR repression of the HBEGF gene; change in abundance of each domain in the library before and after diphtheria toxin selection

| Molecule | Log2 (fold change) |
| --- | --- |
| B13 | 2.1073 |
| B14 | 3.1497 |
